Out of some 310,000 compounds screened, about 14,000 (4.5%) showed an effect of 50% or more. The effect is printed as a negative number. This is one part of the list.
Each molecule was assayed against human ether-à-go-go-related gene (hERG) potassium channel (human, UniProt Q12809) (assay: primary screen, population patch clamp on CHO cells stably expressing hERG).
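Also: peak tail current of the secondary pulse compared with the same well before compound.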

Sequence of human ether-à-go-go-related gene (hERG) potassium channel (Q12809 whole entry, looked up): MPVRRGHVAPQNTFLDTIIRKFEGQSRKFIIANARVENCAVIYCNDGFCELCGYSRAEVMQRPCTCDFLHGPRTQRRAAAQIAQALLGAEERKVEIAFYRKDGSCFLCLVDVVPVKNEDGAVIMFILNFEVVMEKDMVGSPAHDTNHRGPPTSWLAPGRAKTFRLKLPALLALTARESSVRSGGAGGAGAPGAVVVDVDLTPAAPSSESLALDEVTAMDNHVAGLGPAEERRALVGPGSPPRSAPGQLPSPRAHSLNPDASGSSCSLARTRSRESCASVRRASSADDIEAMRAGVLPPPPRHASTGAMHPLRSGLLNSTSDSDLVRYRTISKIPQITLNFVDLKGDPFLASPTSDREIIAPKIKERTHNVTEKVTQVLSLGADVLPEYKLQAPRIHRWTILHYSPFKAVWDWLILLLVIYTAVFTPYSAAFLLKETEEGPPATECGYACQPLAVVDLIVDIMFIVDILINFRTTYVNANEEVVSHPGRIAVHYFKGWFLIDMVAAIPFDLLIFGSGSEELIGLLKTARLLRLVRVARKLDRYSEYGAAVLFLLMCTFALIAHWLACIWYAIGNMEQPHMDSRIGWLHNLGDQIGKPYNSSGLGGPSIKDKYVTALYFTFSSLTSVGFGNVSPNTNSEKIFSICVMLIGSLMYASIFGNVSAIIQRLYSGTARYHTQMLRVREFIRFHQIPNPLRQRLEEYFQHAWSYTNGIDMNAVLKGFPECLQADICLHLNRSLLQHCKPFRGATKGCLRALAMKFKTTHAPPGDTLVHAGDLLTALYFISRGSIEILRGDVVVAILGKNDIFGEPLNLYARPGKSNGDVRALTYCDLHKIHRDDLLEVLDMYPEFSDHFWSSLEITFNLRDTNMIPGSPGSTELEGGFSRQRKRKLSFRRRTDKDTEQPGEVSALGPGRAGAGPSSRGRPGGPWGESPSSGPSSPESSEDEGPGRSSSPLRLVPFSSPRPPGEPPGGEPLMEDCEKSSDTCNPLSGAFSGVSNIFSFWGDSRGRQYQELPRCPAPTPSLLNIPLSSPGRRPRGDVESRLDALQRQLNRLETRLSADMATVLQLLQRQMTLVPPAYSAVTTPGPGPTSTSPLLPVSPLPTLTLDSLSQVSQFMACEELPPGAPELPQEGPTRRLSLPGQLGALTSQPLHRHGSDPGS

| Compound | hERG current change (%, negative = inhibition) at 10uM [%] |
| --- | --- |
| CCOC(=O)COc1c(OC)cc(Cl)cc1C1Nc2ccccc2C(=O)N1c1ccccc1 (stereo not shown) | -11 |
| Cc1ccc(S(=O)(=O)N2CCCNCC2)cc1 | 8.85 |
| CCCN(CCC)CCCn1c(=O)[nH]c2ccccc21.Cl | 1.79 |
| COc1ccc2oc(-c3ccc(C)c(NC(=O)c4ccc(N5CCOCC5)c([N+](=O)[O-])c4)c3)nc2c1 | -3.95 |
| CCC(CNc1cc(OC)cc2cccnc12)NC1CCCCC1 (stereo not shown) | -26.2 |
| O=C(COC(=O)c1cc(Br)ccc1Cl)NC(=O)NCc1ccccc1 | 19 |
| COc1ccc(N2CC(C(=O)NCCC3=CCCCC3)CC2=O)cc1 (stereo not shown) | -8.81 |
| COc1ccc(CCNC(=O)CN2C(=O)COc3ccc(S(=O)(=O)N4CCOCC4)cc32)c(OC)c1 | -28.1 |
| Cc1cc(C)nc(-n2nc(C)cc2NC(=O)c2cccc(S(=O)(=O)N(C)C)c2)n1 | -49.8 |
| CC(C)C(c1nnnn1C1CCCC1)N1CCN(c2ccccc2F)CC1 (stereo not shown) | 0.713 |
| COc1ccc(CCNc2cc(C)nc3c(-c4ccccc4)c(C)nn23)cc1OC | -6.67 |
| N#CCSc1nnc(-c2ccccc2O)n1CCc1ccccc1 | -10.7 |
| Cc1ccc2nc(SCC(=O)Nc3ccc(F)cc3F)nc(=O)n2c1 | -8.49 |
| CCN(CC(=O)NCc1ccc(Cl)cc1)CC(=O)NC1(C#N)CCCC1 | -19.2 |
| Cn1cc(Br)c(C(=O)Nc2ncc(Br)s2)n1 | 21 |
| CCn1c(SCc2ccccc2)nc2cc(S(N)(=O)=O)ccc21 | -7.25 |
| Cc1nn(Cc2ccccc2)c(Cl)c1C(=O)OCC(=O)NCC1CCCO1 (stereo not shown) | -7.26 |
| COc1ccc(CN2CCNC(=O)C2CC(=O)NC2CCC2)c(OC)c1 (stereo not shown) | 7.1 |
| Cl.Nc1nc(N)c2[nH]c(-c3ccccc3)nc2n1 | 5.45 |
| N#Cc1ccsc1NC(=O)c1cccc(-n2cnnn2)c1 | 6.03 |
| Cc1cccc(NC(=O)c2ccc(N3CCOCC3)c([N+](=O)[O-])c2)n1 | -20.1 |
| CCOC(=O)N/N=C(\C)c1ccc(Br)cc1 | -4.03 |

| Compound | hERG current change (%, negative = inhibition) at 10uM [%] |
| --- | --- |
| Cc1ccc(-c2nn[nH]n2)o1 | 17.5 |
| Cc1cc(Oc2ccc(-c3ccccc3)cc2)nc(N2CCOCC2)n1 | -1.32 |
| C[C@@H]1CC=C[C@H]2[C@H]1C(=O)N(Cc1ccccc1)[C@H]2c1ccc(Br)cc1F | 18 |
| CCN1/C(=C2/SC(=S)NC2=O)Sc2ccccc21 | 16.4 |
| CCOC(=O)C(C(=O)Nc1cccc(C)c1)C1CCCCC1 (stereo not shown) | -6.99 |
| CCOC(=O)C(C)Sc1ncc(-c2ccccc2)cn1 (stereo not shown) | -1.33 |
| Nn1c(SCC(=O)Nc2ccccc2C(F)(F)F)nncc1=O | 18.3 |
| Cc1ccc(CNC(=O)c2cc(-c3ccccc3)n(Cc3cc(C)no3)n2)cc1 | -29.1 |
| NC(=O)c1csc(-c2ccncc2)n1 | 3.87 |
| COC(=O)C1=C(c2ccccc2)C[C@@H]2CC[C@H]1N2C(=O)NCc1ccco1 | 7.46 |
| O=C(CN1C(=O)NC2(CCc3ccccc32)C1=O)Nc1cc(C(F)(F)F)ccc1N1CCOCC1 (stereo not shown) | -5.15 |
| CCCS(=O)(=O)N1CCC(C(=O)NCCc2ccc(OC)c(OC)c2)CC1 | 13.5 |
| COc1cccc(NC(=O)CSc2nc(=O)n(Cc3ccncc3)c3c2CCCC3)c1 | -10.9 |
| Nc1nc2c(nc(SCc3ccccc3Br)n2[C@@H]2O[C@H](CO)[C@@H](O)[C@H]2O)c(=O)[nH]1 | 13.5 |
| CC(=O)Nc1ccc(NC(=O)CCc2ccc(C)o2)cc1 | 19.8 |
| O=C1NC[C@@H](Cc2cccc3ccccc23)N(CCC23CC4CC(CC(C4)C2)C3)C1=O | 20.5 |
| Cc1cc(C)cc(C(=O)NCC(=O)OCC(=O)N(C)c2ccccc2)c1 | 14.4 |
| CCCOC(=O)C1C2C=CC3(CN(c4cccc(Cl)c4)C(=O)C13)O2 (stereo not shown) | -5.23 |
| COC(=O)c1c(C(=O)OC)c(-c2cccc(F)c2)n2c1CS(=O)C2 (stereo not shown) | 8.7 |
| Nc1ccn([C@H]2CS[C@@H](CO)O2)c(=O)n1 | 18 |
| C/C(=N\Nc1c(F)c(F)c(Br)c(F)c1F)c1ccncc1 | 16.4 |

Source: article PMC4336329 (PLoS ONE, 2015)
